Screen size: about 73,000 compounds; about 2,500 (3.4%) were called active. Inconclusive means that the source gave no clear call. Such entries were picked first, then a sample of the others. Calls come from the whole dose curve; as a rule, active = well fitted inhibition curve with a large enough effect; inconclusive = small, poorly fitted or top-dose-only effect; inactive = no such curve, though single readings can be large or run the other way. Potencies beside an inconclusive call are fits to weak or partial responses and may not hold up.
molecular target: 3-hydroxyacyl-CoA dehydrogenase type-2 (Homo sapiens) (UniProt Q99714); experiment: qHTS Assay for Inhibitors of HADH2 (Hydroxyacyl-Coenzyme A Dehydrogenase, Type II); details: recombinant HADH2, NADH fluorescence, beta-hydroxybutyryl-CoA; activity change, negative = inhibition: at 57.1 µM (top of the series); note: nearly all actives have a fitted effect of over 60% in size
UniProt Q99714, sequence (Q99714 whole entry, looked up): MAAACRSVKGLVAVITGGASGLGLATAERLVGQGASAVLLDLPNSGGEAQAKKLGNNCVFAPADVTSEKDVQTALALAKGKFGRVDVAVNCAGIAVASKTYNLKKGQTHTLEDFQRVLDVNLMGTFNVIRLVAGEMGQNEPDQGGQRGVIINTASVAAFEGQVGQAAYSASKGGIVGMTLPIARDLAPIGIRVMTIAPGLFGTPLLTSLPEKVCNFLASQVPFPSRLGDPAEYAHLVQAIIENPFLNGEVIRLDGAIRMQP
UniProt Q99714, sequence (Q99714 whole entry, looked up): as above
Method in brief: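 NADH fluorescence (ex 360/em 450 nm) read every 30 s for 4 min; activity taken as last-minus-first time point difference. Enzyme 20 nM, NAD+ 1 mM, beta-hydroxybutyryl-CoA 90 uM, pH 9.0 Tris buffer.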
% is set by controls: 0 for no effect and ±100 for the full control effect; potency is the fitted concentration of half-maximal effect; tags give direction and shape of the fitted curve.

Row | Compound | activity change, negative = inhibition | Potency
1 | C[C@@H]1C[C@H](C)CN(S(=O)(=O)c2cc(Cl)c(Oc3ccc([N+](=O)[O-])cc3Cl)c(Cl)c2)C1 | inactive: -1.29% [at 11.4 µM] | –
2 | Cc1cc2n(n1)C(c1ccsc1)Nc1ccccc1-2 (stereo not drawn) | – | inconclusive: 39.8 µM [inhibitor, single point]
3 | COc1ccc(-c2ccc(CCC(=O)O)n2NC(=O)c2cccs2)cc1 | – | inconclusive: 5.01 µM [inhibitor, single point]
4 | CC(=O)c1c(C)[nH]c(C(=O)CSc2nc3ccccc3c(=O)n2CCCN2CCOCC2)c1C | – | inconclusive: 31.6 µM [inhibitor, single point]
5 | CCN(CC)CCN(Cc1cc2cc(C)ccc2[nH]c1=O)C(=O)Nc1ccccc1OC | inactive: 11.8% | –
6 | N#Cc1c(N)c(C#N)c(-c2ccc(O)cc2)c2c1CCCC2 | – | active: 25.1 µM
7 | C=CCn1c(=N)c(C(=O)NCCCOC)cc2c(=O)n3ccccc3nc21 | – | inconclusive: 39.8 µM [inhibitor, single point]
8 | Nc1ccccc1S[C@@H](C[N+](=O)[O-])c1ccc2c(c1)OCO2 | – | inconclusive: 0.794 µM [inhibitor, full curve]
9 | Nc1ccc(Cl)cc1[N+](=O)[O-] | inactive: -4.86% | –
10 | CC1(C)Cc2c(C#N)c(N)sc(=S)c2CO1 | – | inconclusive: 3.16 µM [inhibitor, full curve, poor fit]
11 | CCNc1ncc2nc(-c3ccc(F)cc3)c(=O)n(-c3ccc(OC)cc3)c2n1 | inactive: 3.81% | –
12 | COc1ccc(-c2nc(C#N)c(N3CCN(c4cccc(Cl)c4)CC3)o2)cc1OC | – | inconclusive: 6.31 µM [inhibitor, single point]
13 | COc1ccccc1/C=c1\sc2nc(-c3ccco3)nn2c1=O | – | inconclusive: 25.1 µM [inhibitor, partial curve]
14 | COC(=O)c1nc(NC(=O)C(C)C)n[nH]1 | – | inconclusive: 25.1 µM [inhibitor, single point]
15 | CCCCOCCCn1c(-c2ccco2)nc2nc3ccccc3nc21 | – | active: 25.1 µM
16 | CCCn1c(SCc2ccc(Cl)cc2)nc2c1c(=O)[nH]c(=O)n2C | – | inconclusive: 39.8 µM [inhibitor, single point]
17 | S=C1NCN2CCN(CC2)CNC(=S)C(=S)NCN2CCN(CC2)CNC1=S | – | inconclusive: 1.58 µM [inhibitor, partial curve]
18 | O=C(O)CCc1ccc(-c2cccs2)o1 | – | active: 2 µM
19 | Cc1cccc(S(=O)(=O)C(C#N)c2nc3ccccc3nc2N2CCCC2)c1 (stereo not drawn) | – | inconclusive: 20 µM [inhibitor, partial curve]
20 | Cc1ccc(-n2c(N)c(C(=O)N3CCOCC3)sc2=S)c(C)c1 | – | active: 3.16 µM
21 | Cc1nc2ccccc2c2oc(C(=O)NCc3ccccn3)cc12 | inactive: 0.904% | –
22 | CCN(CC)c1ccc2oc(=O)c(C)nc2c1 | – | active: 3.98 µM
23 | COc1ccc(C(=O)SC2=NCCS2)cc1OC | – | inconclusive: 2 µM [inhibitor, partial curve]
24 | CCOC(=O)Nc1sc(NS(=O)(=O)c2ccccc2)nc1C | – | inconclusive: 39.8 µM [inhibitor, single point]

Row | Compound | activity change, negative = inhibition | Potency
25 | Cc1nc2oc3c(NCc4ccccn4)ncnc3c2c2c1COC(C)(C)C2 | – | inconclusive: 39.8 µM [inhibitor, single point]
26 | C/C(=C1/SC(=S)N(CCC(=O)O)C1=O)c1ccc(O)cc1 | – | active: 31.6 µM
27 | CCCCCCC[N+](CC)(CC)CCCCc1ccc(Cl)cc1 | inactive: 8.55% [at 25.6 µM] | –
28 | CCOc1cccc(CN2CCN(c3cccc(C(F)(F)F)c3)CC2)c1O | – | inconclusive: 3.98 µM [inhibitor, single point]
29 | CCc1ccc(C(=O)CSC2=C(C#N)C(c3ccco3)C(C(C)=O)=C(C)N2)cc1 (stereo not drawn) | – | active: 31.6 µM
30 | Cc1ccc2cc(CN(Cc3nnnn3C3CCCCC3)CC3CCCO3)c(=O)[nH]c2c1 (stereo not drawn) | inactive: 2.9% | –
31 | CC(C(=O)NC1CCCC1)N(Cc1ccco1)C(=O)c1snc(C(=O)NC2CCCC2)c1N (stereo not drawn) | inactive: -23.4% | –
32 | CC(N=c1ccccn1C(=O)Nc1ccc(Cl)cc1)c1ccco1 (stereo not drawn) | – | inconclusive: 3.16 µM [inhibitor, single point]
33 | CCC(C)Sc1nc2c(c(=O)n1C)SC(C)C2 (stereo not drawn) | – | inconclusive: 6.31 µM [inhibitor, single point]
34 | COC(=O)Cn1c2c(c3cc(C)ccc31)CCCC2 | – | inconclusive: 25.1 µM [inhibitor, single point]
35 | Cc1cc(C)n(-c2ccc(C(=O)Nc3nc4ccccc4s3)cc2)n1 | – | inconclusive: 31.6 µM [inhibitor, single point]
36 | O=C(O)c1ccc(CSc2ncn[nH]2)cc1 | inactive: -5.74% | –
37 | Cc1cc(N2C(=O)C3CC=CCC3C2=O)cc(C)c1Br (stereo not drawn) | inactive: 0.183% | –
38 | CCOC(=O)c1sc2nc(N3CCCC3)c3c(c2c1N)CC(C)(C)OC3 | – | inconclusive: 39.8 µM [inhibitor, single point]
39 | CCOC(=O)C1=C(C)N=c2s/c(=C3\C(=O)Nc4ccccc43)c(=O)n2C1c1ccc2c(c1)OCO2 (stereo not drawn) | – | inconclusive: 39.8 µM [inhibitor, single point]
40 | CCOC(=O)c1sc2nc(CSc3nc4ccccc4n3CC)[nH]c(=O)c2c1C | inactive: 4.77% | –
41 | CC(=O)Nc1ccc2nc(-c3ccccn3)[nH]c2c1 | – | inconclusive: 39.8 µM [inhibitor, single point]
42 | Fc1ccc(-n2[nH]nnc2=S)cc1N1CCCC1 | – | inconclusive: 7.94 µM [inhibitor, full curve]
43 | COc1cccc(-c2cncnc2NCc2cccs2)c1 | – | inconclusive: 20 µM [inhibitor, single point]
44 | COc1ccc(-n2c(=O)cc(N3CCN(c4ccccc4OC)CC3)[nH]c2=O)cc1 | – | inconclusive: 39.8 µM [inhibitor, single point]
45 | O=Cc1ccc(OC2C=CC(c3ccccc3)OC2CO)cc1 (stereo not drawn) | inactive: -0.603% [at 11.4 µM] | –
46 | COc1nc(N)nc(NC23CC4CC(CC(C4)C2)C3)n1 | – | inconclusive: 39.8 µM [inhibitor, single point]
47 | Cc1cc(NCCN2CCOCC2)n2c(nc3ccccc32)c1C#N | – | active: 15.8 µM
48 | COc1cccc(NC(=O)CSc2nc3n[nH]c(C)c3c(=N)n2-c2cccc(OC)c2)c1 | – | inconclusive: 39.8 µM [inhibitor, single point]
